Data as given in PMC4336329 (PLoS ONE, 2015).
The whole screen tested about 310,000 compounds, of which about 14,000 (4.5%) showed an effect of 50% or more. Effects have a minus sign here. This is one part of the list.

These compounds were tested against human ether-à-go-go-related gene (hERG) potassium channel (human, UniProt Q12809) (assay: primary screen, population patch clamp on CHO cells stably expressing hERG).
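Note: peak tail current of the secondary pulse compared with the same well before compound.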

Sequence of human ether-à-go-go-related gene (hERG) potassium channel (Q12809 whole entry, looked up): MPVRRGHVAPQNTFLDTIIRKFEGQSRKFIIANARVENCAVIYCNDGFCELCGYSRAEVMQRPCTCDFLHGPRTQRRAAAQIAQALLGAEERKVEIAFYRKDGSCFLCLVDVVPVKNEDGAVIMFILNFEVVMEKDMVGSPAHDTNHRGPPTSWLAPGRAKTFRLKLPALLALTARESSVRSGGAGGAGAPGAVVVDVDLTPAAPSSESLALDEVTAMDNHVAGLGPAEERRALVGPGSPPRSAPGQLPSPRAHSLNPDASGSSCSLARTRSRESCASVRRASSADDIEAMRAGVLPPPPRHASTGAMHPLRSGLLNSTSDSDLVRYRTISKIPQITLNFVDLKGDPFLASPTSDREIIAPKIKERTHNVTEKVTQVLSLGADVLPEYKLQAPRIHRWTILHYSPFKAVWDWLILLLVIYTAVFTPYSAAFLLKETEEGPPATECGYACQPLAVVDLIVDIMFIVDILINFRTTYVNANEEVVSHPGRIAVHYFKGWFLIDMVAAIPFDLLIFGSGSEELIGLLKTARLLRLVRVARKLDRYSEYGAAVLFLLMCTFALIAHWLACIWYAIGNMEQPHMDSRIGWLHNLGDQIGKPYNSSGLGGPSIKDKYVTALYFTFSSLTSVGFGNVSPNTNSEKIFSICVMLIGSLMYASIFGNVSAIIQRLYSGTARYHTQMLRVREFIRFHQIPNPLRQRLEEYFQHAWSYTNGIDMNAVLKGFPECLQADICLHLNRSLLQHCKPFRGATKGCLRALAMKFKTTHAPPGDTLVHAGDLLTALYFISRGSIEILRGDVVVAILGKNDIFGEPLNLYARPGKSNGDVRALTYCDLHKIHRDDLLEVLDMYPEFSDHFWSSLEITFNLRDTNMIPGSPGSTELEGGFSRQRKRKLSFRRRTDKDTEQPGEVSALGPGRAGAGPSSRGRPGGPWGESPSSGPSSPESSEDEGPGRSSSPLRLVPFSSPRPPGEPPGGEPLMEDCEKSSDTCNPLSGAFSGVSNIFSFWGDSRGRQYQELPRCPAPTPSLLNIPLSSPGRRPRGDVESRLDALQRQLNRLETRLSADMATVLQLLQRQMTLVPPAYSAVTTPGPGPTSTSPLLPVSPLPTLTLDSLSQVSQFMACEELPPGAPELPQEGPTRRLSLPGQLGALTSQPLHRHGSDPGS

SMILES	hERG current change (%, negative = inhibition) at 10uM
O=C(C1=C(O)C(=O)N(Cc2ccccc2)C1c1ccco1)c1ccco1 (stereo not drawn)	29.1%
Cc1cc(C)nc(NS(=O)(=O)c2ccc(NC(=O)c3cc4c(=O)n5cccc(C)c5nc4n3C)cc2)n1	15.9%
CC(C)=CC(=O)OCC(=O)Nc1cc([N+](=O)[O-])ccc1F	0.461%
C=CCC1(C(=O)NCCO)CCN(C(=O)OC(C)(C)C)CC1	1.56%
COc1cccc(NC(=O)CCSc2nnc3scc(-c4ccccc4)n23)c1	-0.933%
COc1cccc(NC(=O)CSc2nc(=O)n(CCN(C)C)c3c2CCCC3)c1	-49.9%
CN(C)CCC(O)(c1ccccc1)c1ccccc1.Cl	-20.2%
CCn1c(C(=O)N2CCC(C(=O)NCCCSC3CCCCC3)CC2)cc2sccc21	-31.3%
O=C(N=Nc1c(O)[nH]c2ccccc12)c1cccc(S(=O)(=O)Nc2ccccc2Cl)c1	1.88%
CCOC(=O)c1c(-c2ccccc2)oc2cc(Br)c(O)cc12	3.65%
COc1ccc(CCNC(=O)Nc2cc(F)c(F)cc2Cl)cc1OC	11.2%
COc1cccc(/C=N/NC(=O)N/N=C/c2cccc(OC)c2O)c1O	13.7%
CCOc1ccc(C(=O)NCCc2ccccc2)cc1	15%
CCOP(=O)(OCC)C(Nc1ccc(OC)cc1)c1ccco1 (stereo not drawn)	4.78%
C=CCNC(=O)c1cnc2n(c1=O)CCS2	4.75%
Cc1ccc(C(=O)NNC(=O)CCC(=O)Nc2cc(C)on2)cc1	18.9%
O=C(COc1coc(CN2CCCc3ccccc32)cc1=O)Nc1cccc([N+](=O)[O-])c1	-1.67%
Cc1cc(N/N=C/c2ccc3c(c2)OCO3)nc2ccccc12	0.78%
CCOC(=O)c1c(CN(C)C)n(C)c2c(O)c(N=NC(N)=O)c3ccc(Br)cc3c12.Cl	2.22%

SMILES	hERG current change (%, negative = inhibition) at 10uM
CNC(=O)N1c2ccccc2CCc2ccccc21	8.99%
CC(C)OP(=O)(OC(C)C)C(Nc1ccccn1)c1ccc(F)cc1 (stereo not drawn)	19.7%
CCCC(=O)Nc1ccc(N2CCN(C(=O)c3cc4ccccc4o3)CC2)cc1	-13.4%
CCCCNC(=S)N(C)/N=C/c1ccc(OCC(=O)Nc2ccc(OC)cc2)c(OC)c1	-4.23%
O=C(COc1ccccc1)NC1CCSC1=O (stereo not drawn)	-72.9%
NS(=O)(=O)c1ccc(CCNC(=O)C2CCN(S(=O)(=O)c3cnc[nH]3)CC2)cc1	-2.97%
CN(C(=O)c1ccccc1NC(=O)C(F)(F)F)c1ccccc1	12.9%
CCOC(=O)c1sc2nc(C)n(N)c(=O)c2c1C	23.8%
CC(Sc1nnc2c(n1)[nH]c1ccccc12)C(=O)NC1CCCCC1 (stereo not drawn)	-3.94%
COc1ccc(S(=O)(=O)N(C)C)cc1NC(=O)c1ccc2c(c1)OCCO2	3.66%
CCOC(=O)c1c[nH]c2c(C(F)(F)F)cccc2c1=O	6.07%
Cc1ccc2cc3cc(C(=O)NCCCN4CCCC4=O)oc3nc2c1	2.4%
O=C1COc2ccc(C(=O)COC(=O)c3ccccn3)cc2N1	-4.24%
COC(=O)c1ccccc1C(=O)N1CCOCCOCCOCC1	13.2%
CCN(CC(=O)NCc1ccc(Cl)cc1)C(=O)/C=C/c1ccccc1	-46%
Cc1cc(Cl)ccc1Oc1ncnc2onc(C)c12	2.55%
O=C(O)Cn1cnc2ccccc2c1=O	11.6%
O=C(Cn1cc2c(n1)CCCCC2)NC1CCN(Cc2ccccc2)CC1	-58.5%
COc1ccc(/C=C(/NC(=O)c2ccco2)C(=O)Nc2ccc(C(=O)O)cc2)cc1	9.11%

SMILES	hERG current change (%, negative = inhibition) at 10uM
CC1Cc2ccccc2N1C(=O)CNCCCN(C)C.O=C(O)C(=O)O (stereo not drawn)	4.46%
CCOC(=O)/C(=N/Nc1ccccc1)c1csc(Nc2ccccc2)n1	-1.19%
Cc1c(O)nc(SC2CC(=O)N(c3ccccc3)C2=O)[nH]c1=O (stereo not drawn)	7.22%
COc1cc(C(=O)N2CCc3ccccc32)ccc1OCc1c(C)noc1C	-29%
Cc1ccc(NC(=O)c2ccc(S(=O)(=O)N3CCCC3)cc2)nc1	16.9%
Cc1noc(NS(=O)(=O)c2ccc(NC(=O)c3oc4ccc(Cl)cc4c3C)cc2)c1C	8%
Cc1nc2nc(COc3ccccc3)[nH]n2c(=O)c1C	8.35%
Cc1cc(C)c(NC(=O)C(=O)NCc2ccco2)c(C)c1	15.2%
Cc1cc(CNC(=O)COc2cc(F)ccc2[N+](=O)[O-])c2ccccc2n1	-0.901%
O=C(c1ccccc1)c1cnc2ccc(Cl)cc2c1N1CCOCC1	-14.5%
O=C(Nc1ccc(Cl)c(Cl)c1)N(Cc1cccnc1)Cc1ccco1	-73.7%
CCOC(=O)c1ccc(NC(=O)Cc2coc3cc4c(cc23)CCC4)cc1	5.55%
COc1ccc(CNC(=O)CN2CCN(c3ccc(F)cc3)CC2)cc1	-39.1%
COc1ccc(C(=O)NNC(=O)CSc2nc(C(C)C)nc3ccccc23)cc1	-3.52%
O=C(CCN1CCN(c2ccccc2)CC1)Nc1nccs1	-9.77%
Cn1nnnc1NCc1ccc(Cl)c(Cl)c1	7.47%
C=CC[n+]1c(-c2ccc(C)cc2)csc1NNC(=O)Nc1ccccc1.[Br-]	-6.68%
Cc1cccc(NC(=O)CCCCCN2C(=O)[C@@H]3Cc4ccccc4CN3C2=O)c1	-21.7%
CCCNC(=O)C1CCC(CNS(=O)(=O)c2ccc3c(c2)CC(C)N3C(C)=O)CC1 (stereo not drawn)	17.2%
